Experimental data taken from paper PMC2922928 (Nature structural & molecular biology, 2010).

What was measured:
GST-Mdm2(10–139) = GST-Mdm2(10–139) (human, UniProt Q00987 10-139); test: native gel or EMSA
[1] = target: Flag-tagged full-length Mdm2 (human, UniProt Q00987); test: ELISA
untagged Mdm2(10–139) = untagged Mdm2(10–139) (human, UniProt Q00987 10-139); test: ELISA

B1: p53-CTD([…]) peptide (peptide)
peptide: not shown
**Q.** Does B1 bind (GST-Mdm2(10–139))?
**A.** binds

**Q.** Does B1 bind [1]?
**A.** binds

B2: p53-TAD-I([…]) peptide (peptide)
peptide: not shown
**Q.** Which IC50 (untagged Mdm2(10–139)) does the source give for B2 here?
**A.** ~1000 nM

B3: His-tagged p53(ΔC30) purified from bacteria (domain or fragment)
chain: not shown
**Q.** Does B3 bind [1]?
**A.** binds
